Reference: the supplement of paper PMC3334620
In all, about 33,000 sequences were measured (“E-score (-0.5 to 0.5)”: median about -0.053, highest 2% from about 0.37 on). This is one part of the list.

These sequences were tested against Hap1 (UniProt P0CE41) (assay: PBM E-score (8-mer binding enrichment) (E-score (-0.5 to 0.5)); higher = stronger / more preferred TF binding; most listed sequences are background and not binding sites). Conditions: protein concentration: 200 nM; construct: GST-DNA-binding domain.
Sequence of UniProt P0CE41 (P0CE41 whole entry, the tested form may be a part): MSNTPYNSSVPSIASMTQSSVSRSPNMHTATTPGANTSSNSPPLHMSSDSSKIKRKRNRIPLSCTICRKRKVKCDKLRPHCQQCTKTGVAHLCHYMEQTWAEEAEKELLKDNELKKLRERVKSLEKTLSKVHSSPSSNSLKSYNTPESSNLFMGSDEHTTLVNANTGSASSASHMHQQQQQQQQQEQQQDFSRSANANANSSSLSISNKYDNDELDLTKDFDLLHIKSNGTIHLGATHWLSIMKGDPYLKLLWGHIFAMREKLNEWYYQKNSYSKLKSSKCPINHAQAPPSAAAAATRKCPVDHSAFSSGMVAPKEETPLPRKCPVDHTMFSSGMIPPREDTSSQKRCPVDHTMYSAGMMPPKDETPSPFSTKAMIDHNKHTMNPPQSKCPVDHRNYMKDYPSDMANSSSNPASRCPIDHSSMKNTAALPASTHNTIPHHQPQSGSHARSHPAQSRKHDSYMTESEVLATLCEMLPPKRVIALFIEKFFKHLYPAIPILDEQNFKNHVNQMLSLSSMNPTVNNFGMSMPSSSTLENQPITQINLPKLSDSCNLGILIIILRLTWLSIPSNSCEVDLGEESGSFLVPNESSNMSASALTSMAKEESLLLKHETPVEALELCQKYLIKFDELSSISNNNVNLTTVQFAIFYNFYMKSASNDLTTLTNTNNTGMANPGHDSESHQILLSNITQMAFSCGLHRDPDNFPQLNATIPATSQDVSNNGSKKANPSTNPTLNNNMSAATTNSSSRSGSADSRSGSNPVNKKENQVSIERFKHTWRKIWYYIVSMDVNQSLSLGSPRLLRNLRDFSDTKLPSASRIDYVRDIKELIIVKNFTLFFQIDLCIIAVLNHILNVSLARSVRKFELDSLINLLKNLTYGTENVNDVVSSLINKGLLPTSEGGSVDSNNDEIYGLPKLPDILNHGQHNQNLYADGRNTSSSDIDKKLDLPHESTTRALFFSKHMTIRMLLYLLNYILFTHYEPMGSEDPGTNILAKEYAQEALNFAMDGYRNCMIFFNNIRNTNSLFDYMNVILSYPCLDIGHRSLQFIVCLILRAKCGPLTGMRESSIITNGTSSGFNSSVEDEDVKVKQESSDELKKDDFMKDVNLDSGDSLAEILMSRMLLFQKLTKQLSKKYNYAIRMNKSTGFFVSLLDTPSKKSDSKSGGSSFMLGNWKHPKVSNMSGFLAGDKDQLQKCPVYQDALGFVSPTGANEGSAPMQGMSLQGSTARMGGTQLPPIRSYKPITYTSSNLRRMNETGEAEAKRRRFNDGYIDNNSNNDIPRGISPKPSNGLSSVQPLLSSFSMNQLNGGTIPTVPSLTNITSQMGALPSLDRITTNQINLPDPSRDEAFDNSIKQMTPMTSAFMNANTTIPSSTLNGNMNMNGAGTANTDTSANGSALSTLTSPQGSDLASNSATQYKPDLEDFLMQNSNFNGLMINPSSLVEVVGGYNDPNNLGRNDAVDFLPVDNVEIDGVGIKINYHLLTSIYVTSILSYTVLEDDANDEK
Description: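 Universal 'all 10-mer' protein binding microarrays (Agilent AMADID 015681) probed with GST-tagged S. cerevisiae TFs (full-length or DBD) made by in vitro transcription/translation (PURExpress), about 100-200 nM. Bound TF was detected with fluorescent anti-GST. Each ungapped 8-mer (which stands for itself and its reverse complement) is scored by the PBM enrichment score (E-score), a modified Wilcoxon-Mann-Whitney statistic from -0.5 to +0.5, computed with the Universal PBM Analysis Suite. Scale: above 0.35 generally sequence-specific binding.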

| Sequence | PBM E-score |
| --- | --- |
| AAGAACAC | -0.00923 |
| ACCGAACT | 0.152 |
| CTGGTTTC | 0.0946 |
| AGCACAAC | 0.152 |
| ATACTTTG | -0.172 |
| GGTCGTGA | -0.18 |
| GAGAACCC | -0.0871 |
| TCAATGGA | -0.0909 |
| CTCTTATA | 0.0711 |
| AGATGCAG | -0.31 |
| AATTATCT | 0.0828 |
| CAGTGCAC | -0.0115 |
| ACCTGACC | -0.148 |
| AAAAACAC | -0.112 |
| GACCCCAC | 0.025 |
| AGTGTGCA | -0.0705 |
| CAAGACGA | -0.145 |
| CTGGCGGC | 0.085 |
| ACGTTGAT | -0.104 |
| GTAGCGTA | -0.0513 |
| ATTCGATG | -0.0371 |
| ATCGCTCA | -0.0431 |
| CATAGGTA | -0.0284 |
| ATTTGAGC | -0.118 |
| ACAGCCCA | -0.164 |

| Sequence | PBM E-score |
| --- | --- |
| CCGACCGG | 0.428 |
| CGATGCAA | 0.0923 |
| ATGACATA | -0.204 |
| CCCCTAGA | -0.311 |
| AGAAATCA | -0.067 |
| CCACACAC | 0.0633 |
| AACGCGCG | 0.13 |
| CTCCGGAC | 0.454 |
| ACCGAGGC | 0.189 |
| GACGGTCA | -0.0752 |
| GGTCTCGA | 0.0148 |
| ATGGAAAT | 0.0825 |
| GGGATACA | 0.0801 |
| GGCAGCGA | 0.0265 |
| AAGCACCG | 0.141 |
| ATAGGGAT | -0.102 |
| CACTGGAC | -0.0282 |
| GCGCCTGA | 0.0487 |
| GCGAGGAC | -0.155 |
| CGACGGAA | 0.265 |
| GTCACAAC | -0.0294 |
| AGTTCATA | -0.0246 |
| CTTGCTTC | -0.128 |
| CCTCGGCA | 0.294 |
| ACAACAAA | -0.145 |

| Sequence | PBM E-score |
| --- | --- |
| CTCTGGAA | -0.193 |
| ACTACTTA | -0.127 |
| TCCCGGGA | 0.392 |
| GGCCAGAA | -0.0857 |
| CGCTTCGA | 0.00404 |
| CAGACGAA | 0.0649 |
| AAACCGCG | 0.235 |
| CGAGCAAA | 0.087 |
| CCGAGATA | 0.32 |
| CATGCTTC | -0.0171 |
| CGCGGTCC | 0.316 |
| AAATGAAC | -0.259 |
| GTCATTAA | 0.00718 |
| GACAGATA | -0.0328 |
| CAGCTACG | -0.239 |
| GCCACGTA | -0.213 |
| CTATCTGC | 0.0127 |
| GGGAAATA | 0.13 |
| CCCGCAGC | 0.129 |
| CAACGGCA | 0.0809 |
| GGCAGTTA | -0.0681 |
| GATCGCAA | -0.0357 |
| AGTGATGG | -0.186 |
| CACCTGGG | -0.296 |
| AGCCACGA | -0.155 |

| Sequence | PBM E-score |
| --- | --- |
| TAGAAAAA | -0.115 |
| AACTATGA | -0.161 |
| GAACGTCC | 0.0447 |
| CCATCGAC | -0.00514 |
| ATGGTAAC | -0.0519 |
| AGGATAAC | -0.244 |
| ATCGATAC | 0.0912 |
| ACTTAGTG | -0.123 |
| AGGCCATA | 0.0268 |
| CTACGCAA | -0.155 |
| CCTAGCAG | -0.26 |
| GTTGGTTA | -0.0552 |
| AGTCTTAT | -0.177 |
| AGTTTACG | 0.0034 |
| AGTGCAAC | -0.0166 |
| AAACGCAA | -0.027 |
| GTGCTCGA | -0.0478 |
| GTGTGGTA | -0.174 |
| CGCAATAC | 0.0613 |
| GAGCATCC | 0.0949 |
| CGACTCCA | -0.23 |
| GGTCGATA | 0.0664 |
| GAGATGAC | -0.0675 |
| CCCCATCG | 0.172 |
| CGGACATA | 0.489 |

| Sequence | PBM E-score |
| --- | --- |
| ATACGGCC | 0.197 |
| GCCAAATA | 0.0541 |
| GCCGATCC | 0.258 |
| GTGGTGCA | 0.0173 |
| CCATCTGC | 0.111 |
| AACCAGAC | -0.325 |
| CCGTAGGC | 0.109 |
| GACAGCCC | -0.0225 |
| ACATGCAC | -0.0891 |
| GGATAGTA | 0.107 |
| CTGATTAC | -0.00333 |
| GTCACCGA | 0.142 |
| TATTAGCA | -0.0543 |
| ACCGCCCG | 0.36 |
| CCCAGTTA | -0.0732 |
| CACATGTA | -0.19 |
| AGTCTCAT | -0.129 |
| CTGTATTA | -0.0381 |
| CGTTGGTA | 0.117 |
| CCCAGTGA | -0.248 |
| GACTTTGA | -0.195 |
| ATAATATC | 0.113 |
| AAGTCGGG | 0.153 |
| CTCGACAC | -0.138 |
| CTATTGGA | -0.0708 |

| Sequence | PBM E-score |
| --- | --- |
| CTAGGGAA | -0.196 |
| CGCAACAC | 0.103 |
| GCGCAACC | 0.0597 |
| CACGGTAA | 0.131 |
| CATTACGG | 0.108 |
| GGTCTAGA | -0.208 |
| GCGCATAC | 0.071 |
| CTCCCCAA | -0.0995 |
| AATTATTA | 0.0259 |
| CTCCTCAA | -0.0916 |
| CGCTAGCC | -0.0182 |
| GTTCCCAA | -0.115 |
| CCGATATA | 0.44 |
| CCTTTTCG | 0.0546 |
| ACGTCTAA | -0.182 |
| ATCTAAAG | 0.0067 |
| CTTAGGCC | -0.0166 |
| AGTTGCCG | 0.108 |
| CCGTTCAG | 0.109 |
| GGATACTA | 0.188 |
| GAACGTTA | 0.0621 |
| ACACAGGC | -0.279 |
| AAGAGTGG | -0.0856 |
| GATCCCCC | 0.0685 |
| GGAACCAA | 0.0624 |

| Sequence | PBM E-score |
| --- | --- |
| CCGTCCAG | -0.0467 |
| TAACGCAA | 0.0452 |
| CCGCGTAG | -0.0382 |
| GCTAAGCC | 0.0914 |
| GTGCCATA | -0.271 |
| GATGATGC | -0.179 |
| CCCCCGGC | 0.317 |
| ATATGGAG | 0.0718 |
| GATCCCGA | 0.256 |
| GTCCATCA | -0.0623 |
| GTAAGGCA | -0.201 |
| AGGTCCCG | 0.202 |
| CACGGCTG | 0.0481 |
| GTACCGAA | 0.0413 |
| GGGATCGA | -0.062 |
| ACGAATTC | -0.132 |
| CGCACCAA | 0.0721 |
| ACCGTACC | 0.0852 |
| CAGCCCCC | -0.289 |
| CTGGGAGA | -0.127 |
| AGCTGGGG | -0.257 |
| GGCTGAGA | 0.083 |
